Assay results from the supplement of paper PMC8728848.
Some of the results follow.

Assays:
Test in all cases: glycan array binding signal (z-score within array); higher = stronger binding
Conditions in all cases: glycan notation: IUPAC condensed, linker removed
GalNAc(b1-3)GalNAc = target: GalNAc(b1-3)GalNAc
Outline: (§1)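 Arrays were curated from the Consortium for Functional Glycomics database, 3228 in total, and kept only where the protein sequence was available. Binding is expressed as a within-array Z-score. This score was averaged across arrays of the same protein sequence at different concentrations or buffers and across linkers, and negative values can be read as non-binding.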

GalNAc(b1-4)GlcNAc = target: GalNAc(b1-4)GlcNAc
Outline: as §1

Glc(a1-4)Glc = target: Glc(a1-4)Glc
Outline: as §1

Glc(a1-6)Glc(a1-6)Glc = target: Glc(a1-6)Glc(a1-6)Glc
Outline: as §1

Glc(b1-4)Glc = target: Glc(b1-4)Glc
Outline: as §1

Glc(b1-6)Glc = target: Glc(b1-6)Glc
Outline: as §1

GlcA(b1-3)Gal = target: GlcA(b1-3)Gal
Outline: as §1

GlcA(b1-3)GlcNAc = target: GlcA(b1-3)GlcNAc
Outline: as §1

GlcA(b1-6)Gal = target: GlcA(b1-6)Gal
Outline: as §1

[1] = target: GlcNAc(a1-3)Gal(b1-4)GlcNAc
Outline: as §1

[2] = target: GlcNAc(a1-6)Gal(b1-4)GlcNAc
Outline: as §1

[3] = target: GlcNAc(b1-2)Gal(b1-3)GalNAc
Outline: as §1

[4] = target: GlcNAc(b1-2)Man(a1-3)[GlcNAc(b1-2)Man(a1-6)]Man(b1-4)GlcNAc(b1-4)GlcNAc
Outline: as §1

GlcNAc(b1-3)Gal = target: GlcNAc(b1-3)Gal
Outline: as §1

[5] = target: GlcNAc(b1-3)Gal(b1-3)GalNAc
Outline: as §1

GlcNAc(b1-3)Gal(b1-4)Glc = target: GlcNAc(b1-3)Gal(b1-4)Glc
Outline: as §1

[6] = target: GlcNAc(b1-3)Gal(b1-4)GlcNAc
Outline: as §1

[7] = target: GlcNAc(b1-3)Gal(b1-4)GlcNAc(b1-3)Gal(b1-4)GlcNAc
Outline: as §1

GlcNAc(b1-3)GalNAc = target: GlcNAc(b1-3)GalNAc
Outline: as §1

GlcNAc(b1-3)Man = target: GlcNAc(b1-3)Man
Outline: as §1

[8] = target: GlcNAc(b1-3)[GlcNAc(b1-4)][GlcNAc(b1-6)]GlcNAc
Outline: as §1

[9] = target: GlcNAc(b1-3)[GlcNAc(b1-6)]Gal(b1-4)GlcNAc
Outline: as §1

[10] = target: GlcNAc(b1-3)[GlcNAc(b1-6)]GalNAc
Outline: as §1

[11] = target: GlcNAc(b1-4)Gal(b1-4)GlcNAc
Outline: as §1

GlcNAc(b1-4)GlcNAc = target: GlcNAc(b1-4)GlcNAc
Outline: as §1

[12] = target: GlcNAc(b1-4)GlcNAc(b1-4)GlcNAc
Outline: as §1

[13] = target: GlcNAc(b1-4)GlcNAc(b1-4)GlcNAc(b1-4)GlcNAc(b1-4)GlcNAc
Outline: as §1

[14] = target: GlcNAc(b1-4)GlcNAc(b1-4)GlcNAc(b1-4)GlcNAc(b1-4)GlcNAc(b1-4)GlcNAc
Outline: as §1

[15] = target: GlcNAc(b1-4)[GlcNAc(b1-6)]GalNAc
Outline: as §1

[16] = target: GlcNAc(b1-6)Gal(b1-4)GlcNAc
Outline: as §1

GlcNAc(b1-6)GalNAc = target: GlcNAc(b1-6)GalNAc
Outline: as §1

GlcNAc3Prop(b1-4)GlcNAc = target: GlcNAc3Prop(b1-4)GlcNAc
Outline: as §1

Kdn(a2-3)Gal(b1-3)GlcNAc = target: Kdn(a2-3)Gal(b1-3)GlcNAc
Outline: as §1

Kdn(a2-3)Gal(b1-4)GlcNAc = target: Kdn(a2-3)Gal(b1-4)GlcNAc
Outline: as §1

[17] = target: Man(a1-2)Man(a1-2)Man(a1-3)Man
Outline: as §1

[18] = target: Man(a1-2)Man(a1-2)Man(a1-6)[Man(a1-3)]Man
Outline: as §1

Man(a1-2)Man(a1-3)Man = target: Man(a1-2)Man(a1-3)Man
Outline: as §1

[19] = target: Man(a1-2)Man(a1-3)[Man(a1-2)Man(a1-6)]Man
Outline: as §1

[20] = target: Man(a1-2)Man(a1-3)[Man(a1-2)Man(a1-6)]Man(a1-6)[Man(a1-2)Man(a1-2)Man(a1-3)]Man
Outline: as §1

[21] = target: Man(a1-2)Man(a1-3)[Man(a1-2)Man(a1-6)]Man(a1-6)[Man(a1-2)Man(a1-2)Man(a1-3)]Man(b1-4)GlcNAc(b1-4)GlcNAc
Outline: as §1

[22] = target: Man(a1-2)Man(a1-3)[Man(a1-6)]Man(a1-6)[Man(a1-2)Man(a1-3)]Man(b1-4)GlcNAc(b1-4)GlcNAc
Outline: as §1

[23] = target: Man(a1-2)Man(a1-6)[Man(a1-3)]Man(a1-6)[Man(a1-2)Man(a1-2)Man(a1-3)]Man
Outline: as §1

[24] = target: Man(a1-2)Man(a1-6)[Man(a1-3)]Man(a1-6)[Man(a1-2)Man(a1-2)Man(a1-3)]Man(b1-4)GlcNAc(b1-4)GlcNAc
Outline: as §1

Man(a1-3)[Man(a1-6)]Man = target: Man(a1-3)[Man(a1-6)]Man
Outline: as §1

[25] = target: Man(a1-3)[Man(a1-6)]Man(a1-6)[Man(a1-2)Man(a1-3)]Man(b1-4)GlcNAc(b1-4)GlcNAc
Outline: as §1

[26] = target: Man(a1-3)[Man(a1-6)]Man(a1-6)[Man(a1-3)]Man
Outline: as §1

[27] = target: Man(a1-3)[Man(a1-6)]Man(a1-6)[Man(a1-3)]Man(b1-4)GlcNAc(b1-4)GlcNAc
Outline: as §1

[28] = target: Man(a1-3)[Man(a1-6)]Man(b1-4)GlcNAc(b1-4)GlcNAc
Outline: as §1

Man(a1-6)Man = target: Man(a1-6)Man
Outline: as §1

Man(b1-4)GlcNAc = target: Man(b1-4)GlcNAc
Outline: as §1

Neu5Ac(a2-3)Gal = target: Neu5Ac(a2-3)Gal
Outline: as §1

[29] = target: Neu5Ac(a2-3)Gal(b1-3)GalNAc
Outline: as §1

[30] = target: Neu5Ac(a2-3)Gal(b1-3)GalNAc(b1-3)Gal(a1-4)Gal(b1-4)Glc
Outline: as §1

[31] = target: Neu5Ac(a2-3)Gal(b1-3)GalNAc(b1-3)Gal(b1-4)GlcNAc
Outline: as §1

[32] = target: Neu5Ac(a2-3)Gal(b1-3)GalNAc(b1-4)[Neu5Ac(a2-3)]Gal(b1-4)Glc
Outline: as §1

[33] = target: Neu5Ac(a2-3)Gal(b1-3)GalNAc6S
Outline: as §1

[34] = target: Neu5Ac(a2-3)Gal(b1-3)GlcNAc
Outline: as §1

[35] = target: Neu5Ac(a2-3)Gal(b1-3)GlcNAc(b1-3)Gal(b1-3)GlcNAc
Outline: as §1

[36] = target: Neu5Ac(a2-3)Gal(b1-3)GlcNAc6S
Outline: as §1

B1: HFR-1 (Triticum aestivum) (protein)
chain: MSPQSFTLETTTTTPAAKGSDPSYFQSAPACHEMIQHKELLLHLYAYQNVQKTPDANQAVIVESKRPECFGILAANDWTVYDGPAHNANLVAHAQGLHLGASMAKENWFICFNMVFVNQRFTGSSFKVMGDFQGTAHNGEWAIVGGTGEFAYAQGVIAFKKTQQSERNARMELHVRAMCLSFLRPLLSLGDGSAVAKIGPWGKMSGELLDIPSTPQRLERITIRHGVVIDSLAFSFIDKAGEPYNVGPWGGRRGDNKDTIELAPSEIVTEVSGTVGIFAEDNVEYNAIASLTITTNHRPYGPFGETQSTPFSVPVQDNNNIVGFFACAGKYVEALGVYVRSPVST
glycan array binding signal (z-score) (GalNAc(b1-3)GalNAc): -0.213
glycan array binding signal (z-score) (GalNAc(b1-4)GlcNAc): -0.002
glycan array binding signal (z-score) (Glc(a1-4)Glc): -0.068
glycan array binding signal (z-score) (Glc(a1-6)Glc(a1-6)Glc): 0.404
glycan array binding signal (z-score) (Glc(b1-4)Glc): -0.108
glycan array binding signal (z-score) (Glc(b1-6)Glc): 0.094
glycan array binding signal (z-score) (GlcA(b1-3)Gal): 0.146
glycan array binding signal (z-score) (GlcA(b1-3)GlcNAc): 0.222
glycan array binding signal (z-score) (GlcA(b1-6)Gal): -0.13
glycan array binding signal (z-score) [1]: -0.147
glycan array binding signal (z-score) [2]: -0.191
glycan array binding signal (z-score) [3]: -0.212
glycan array binding signal (z-score) [4]: -0.058
glycan array binding signal (z-score) (GlcNAc(b1-3)Gal): -0.205
glycan array binding signal (z-score) [5]: -0.175
glycan array binding signal (z-score) (GlcNAc(b1-3)Gal(b1-4)Glc): -0.105
glycan array binding signal (z-score) [6]: -0.216
glycan array binding signal (z-score) [7]: -0.218
glycan array binding signal (z-score) (GlcNAc(b1-3)GalNAc): -0.21
glycan array binding signal (z-score) (GlcNAc(b1-3)Man): -0.093
glycan array binding signal (z-score) [8]: -0.201
glycan array binding signal (z-score) [9]: -0.211
glycan array binding signal (z-score) [10]: -0.19
glycan array binding signal (z-score) [11]: -0.234
glycan array binding signal (z-score) (GlcNAc(b1-4)GlcNAc): -0.156
glycan array binding signal (z-score) [12]: -0.22
glycan array binding signal (z-score) [13]: -0.185
glycan array binding signal (z-score) [14]: -0.164
glycan array binding signal (z-score) [15]: -0.229
glycan array binding signal (z-score) [16]: -0.189
glycan array binding signal (z-score) (GlcNAc(b1-6)GalNAc): 0.023
glycan array binding signal (z-score) (GlcNAc3Prop(b1-4)GlcNAc): -0.189
glycan array binding signal (z-score) (Kdn(a2-3)Gal(b1-3)GlcNAc): -0.2
glycan array binding signal (z-score) (Kdn(a2-3)Gal(b1-4)GlcNAc): -0.228
glycan array binding signal (z-score) [17]: -0.193
glycan array binding signal (z-score) [18]: -0.227
glycan array binding signal (z-score) (Man(a1-2)Man(a1-3)Man): -0.113
glycan array binding signal (z-score) [19]: -0.09
glycan array binding signal (z-score) [20]: -0.213
glycan array binding signal (z-score) [21]: 0.005
glycan array binding signal (z-score) [22]: 4.19
glycan array binding signal (z-score) [23]: -0.214
glycan array binding signal (z-score) [24]: -0.076
glycan array binding signal (z-score) (Man(a1-3)[Man(a1-6)]Man): 4.93
glycan array binding signal (z-score) [25]: 6.43
glycan array binding signal (z-score) [26]: 7.26
glycan array binding signal (z-score) [27]: 7.87
glycan array binding signal (z-score) [28]: 5.48
glycan array binding signal (z-score) (Man(a1-6)Man): 2.03
glycan array binding signal (z-score) (Man(b1-4)GlcNAc): -0.226
glycan array binding signal (z-score) (Neu5Ac(a2-3)Gal): -0.215
glycan array binding signal (z-score) [29]: -0.162
glycan array binding signal (z-score) [30]: -0.229
glycan array binding signal (z-score) [31]: -0.229
glycan array binding signal (z-score) [32]: -0.223
glycan array binding signal (z-score) [33]: -0.218
glycan array binding signal (z-score) [34]: -0.207
glycan array binding signal (z-score) [35]: -0.219
glycan array binding signal (z-score) [36]: -0.033
